Where “and” joins values, the source holds several entries; their conditions need not be identical. Identical values can stand only once. Out of some 16,000 compounds screened, about 40 (0.2%) were called active. Roughly 1% stayed inconclusive and do not appear here. Calls come from the whole dose curve; as a rule, active = well fitted activation curve with a large enough effect; inconclusive = small, poorly fitted or top-dose-only effect, or another doubt; inactive = no such curve, though single readings can be large or run the other way. Some of the results follow.

Data on 85 molecules can be found in PubChem BioAssay AID1645887 (National Center for Advancing Translational Sciences (NCATS), 2021).
% is set by controls: 0 for no effect and ±100 for the full control effect.

This test has as its target Rap guanine nucleotide exchange factor 4 (Homo sapiens) (UniProt Q8WZA2). As to the kind of experiment: Validation qHTS for agonist of cAMP-regulated guanine nucleotide exchange factor 4 (EPAC2).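 Note: exchange makes BODIPY-GDP fluorescence drop when released from Rap1B; series mostly up to about 150 µM.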 The conditions noted are these: EPAC2 Rap1B BODIPY-GDP exchange, fluorescence; activation: hits give high values. In outline: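 Signal normalized against 6.5 mM cAMP as agonist control. Mix of EPAC2 (100 nM), RAP1B-BODIPY-GDP (250 nM) and GDP (50 uM) was read kinetically at 480/540 nm, every 5 min over 30 min, after 5 min room-temperature incubation with compound.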
Chain of UniProt Q8WZA2 (Q8WZA2 whole entry, looked up): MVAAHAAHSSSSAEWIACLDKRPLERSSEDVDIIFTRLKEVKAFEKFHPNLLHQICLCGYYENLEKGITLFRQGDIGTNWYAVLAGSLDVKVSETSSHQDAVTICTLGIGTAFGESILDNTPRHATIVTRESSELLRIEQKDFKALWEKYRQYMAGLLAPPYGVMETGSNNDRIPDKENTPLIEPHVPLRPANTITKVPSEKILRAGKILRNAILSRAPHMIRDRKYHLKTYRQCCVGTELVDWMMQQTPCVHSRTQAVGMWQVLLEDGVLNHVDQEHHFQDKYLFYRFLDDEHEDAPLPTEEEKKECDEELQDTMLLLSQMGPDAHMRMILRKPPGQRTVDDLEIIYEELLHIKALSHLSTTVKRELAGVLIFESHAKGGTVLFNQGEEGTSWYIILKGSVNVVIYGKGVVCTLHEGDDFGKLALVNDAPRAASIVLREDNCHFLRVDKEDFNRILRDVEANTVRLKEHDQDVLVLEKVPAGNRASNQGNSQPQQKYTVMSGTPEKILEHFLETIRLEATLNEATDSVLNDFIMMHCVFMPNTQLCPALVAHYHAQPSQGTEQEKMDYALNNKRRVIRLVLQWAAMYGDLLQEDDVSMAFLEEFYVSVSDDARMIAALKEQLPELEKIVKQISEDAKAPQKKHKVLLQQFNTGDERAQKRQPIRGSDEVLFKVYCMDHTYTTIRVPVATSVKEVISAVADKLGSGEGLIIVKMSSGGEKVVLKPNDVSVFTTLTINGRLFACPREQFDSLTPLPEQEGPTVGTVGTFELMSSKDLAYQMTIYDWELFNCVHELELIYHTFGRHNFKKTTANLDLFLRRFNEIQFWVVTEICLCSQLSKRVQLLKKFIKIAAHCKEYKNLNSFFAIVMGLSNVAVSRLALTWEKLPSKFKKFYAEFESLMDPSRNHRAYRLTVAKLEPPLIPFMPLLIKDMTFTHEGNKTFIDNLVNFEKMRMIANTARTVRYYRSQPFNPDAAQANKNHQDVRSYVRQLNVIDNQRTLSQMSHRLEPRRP
For orientation: In qHTS, concentration-response curves come from the screen itself.
Take `Cn1cccc1C(=O)N1CCC2(CCCN(c3ccc(-c4ccccc4)cc3)C2)CC1`: the activation was inactive: -5.47%. Take `NC(N)=O`: the activation is inactive: -11.5% and inactive: -8.14%. As for `Cc1cccc(C)c1NC(=O)CN1CCCCCC1`, the activation was inactive: -7.8%. In the case of `O=C(CN1Cc2ccccc2OC(c2ccsc2)C1)NCC1OCCc2ccccc21` (stereo not given), the activation is inactive: 3.25%.

For the molecule `CC(C)(C)c1ccc(C(=O)C[N+]2(C)CCCc3ccccc32)cc1` (stereo not given), the activation is inactive: -7.25%. On to `Cn1c([N+](=O)[O-])cnc1COC(N)=O`, for which the activation was inactive: -4.63%. With `Cc1ccc2[nH]c(C(=O)NCc3nc(-c4cccc(NC(=O)c5cc(C)oc5C)c4)oc3C)cc2c1` the figure was inactive: 1.84%; with `O=C(O)CC1CC(c2ccccc2)=NO1` (stereo not given), inactive: -0.506%. Turning to `Cc1nc2cnc(N(C)C)nc2n(C)c1=O`, the activation was inactive: -20.9%. Consider `Clc1ccc(C(c2ccc(Cl)cc2)n2cc[n+](CC(OCc3ccc(Cl)cc3Cl)c3ccc(Cl)cc3Cl)c2)cc1` (stereo not given), for which the activation was inactive: 17.5%. Regarding `CN(c1ccccc1)S(=O)(=O)c1ccccc1Br`, the activation is inactive: -10.4%.

As to `COc1ccc2[nH]cc(CCNc3ncncc3-c3ccccc3C)c2c1`, the activation was inactive: 2.95%. Take `COc1ccc(Oc2ncc3nc(C)c(=O)n(CCc4ccccc4)c3n2)cc1`: the activation was inactive: -1.65%.

As for `COc1ccc(-c2cn(Cc3cccc(OC)c3)nn2)cc1`, the activation was inactive: -13.5%. For `CC(=O)OC1CCC2(C)C(=CC=C3C2CCC2(C)C3CCC2C(C)/C=C/C(C)C(C)C)C1(C)C` (stereo not given), the activation is inactive: -0.281%. With `COc1cc(-c2cnc3ccccc3c2)cc2c1OCCN(C(=O)CCn1nc(C)cc1C)C2` the figure was inactive: -4.43%; with `CCCCCc1ccc(-c2cn(CN3C(=O)c4ccccc4C3=O)nn2)cc1`, inactive: -3.88%.

In the case of `COc1ccc(CNc2cc(-c3ccccc3Cl)ncn2)c(OC)c1`, the activation is inactive: -2.77%.

As to `Cn1cc(-c2nc3cnc(Oc4cccc(Cl)c4)nc3n(C3CC3)c2=O)c2ccccc21`, the activation is inactive: -2.86%. As to `CN(C)c1ncc2nc(CCc3ccccc3)c(=O)n(CCC#N)c2n1`, the activation is inactive: 3.56%.

With `CC(C)NC[C@H](O)c1ccc(O)c(O)c1`, the activation is inactive: -18.4% and inactive: -53.2% and inactive: -15%. As for `CC(Oc1ccccc1)C(=O)N[C@@H]1C(=O)N2[C@@H]1SC(C)(C)[C@@H]2C(=O)O` (stereo not given in full), the figure is inactive: 9.22%. With `COc1cccc(CN2CCC3(CCC(CNC(=O)c4cc(C)nn4C)O3)CC2)c1OC` (stereo not given), the activation was inactive: -7.06%.

`OCC1O[C@H]([S-])[C@H](O)[C@@H](O)[C@@H]1O.[Au+]` (stereo not given in full): the activation was inactive: -20.1%. With `O=C(O)CCC/C=C\C[C@@H]1CO[C@H](C(F)(F)F)O[C@@H]1c1ccccc1O`, the activation is inactive: -10.1%. In the case of `COC(=O)c1ccc(CN2C[C@H](Sc3ccccn3)C[C@H]2C(=O)N(C)C)cc1`, the activation is inactive: -5.84%. On to `CC[N+]1(CC(=O)c2ccc(Br)cc2)CCCCC1`, for which the activation was inactive: -29.4%. With `N#Cc1ccc(CN2CC3(CCN(C(=O)c4csnn4)CC3)C2)cc1`, the activation was inactive: -3.91%. With `COC(=O)c1ccccc1C(=O)N1CCc2c(cnc(C)c2CNC(=O)c2ccccc2F)C1`, the activation is inactive: -12.6%. For the molecule `COc1ccc(-c2cc(C(F)F)nn2-c2ccc(S(N)(=O)=O)cc2)cc1F`, the activation was inactive: 4.66%.

On to `CC(C(=O)O)c1ccc(/C=C2\CCCCC2=O)cc1` (stereo not given), for which the activation is inactive: -7.4%. As to `O=C(c1cccc(F)c1)N1CCC[C@@]2(CCN(c3cccc(-c4ccccc4)c3)C2)C1`, the activation was inactive: -24.8%. Consider `CC(=O)O[C@H]1C[C@H]2CC[C@@H]3[C@H]4C[C@@H]([N+]5(C)CCCCC5)[C@@H](OC(C)=O)[C@]4(C)CC[C@@H]3[C@@]2(C)C[C@@H]1[N+]1(C)CCCCC1`, for which the activation was inactive: -8.62%. As to `Cc1ncc2c(c1CNC(=O)c1ccc3c(c1)OCO3)CCN(C(=O)c1cc3ccccc3o1)C2`, the activation was inactive: -5.26%. As for `NCCS(=O)O`, the activation is inactive: -0.433% and inactive: -8.46%. For `Cc1oc(-c2ccccc2NC(=O)C2CCC2)nc1CNC(=O)c1ccc(C#CC(C)(C)O)cc1`, the activation was inactive: 1.21%. As for `CNc1ncnc2c1ncn2[C@H]1C[C@H](OP(=O)(O)O)[C@H](COP(=O)(O)O)O1`, the figure is inactive: 0.269%. Take `Cc1c(C(=O)NCCC2CCCN2C)cnn1-c1nccc(-c2ccccc2F)n1` (stereo not given): the activation was inactive: -8.53%.

`CC(C)Cc1nc2cc(NS(=O)(=O)N(C)C)cc(C(=O)N3CCc4ccccc4C3)c2n1C`: the activation is inactive: -12.1%. As for `CN(C)c1ncc2nc(-c3cc(F)cc(F)c3)c(=O)n(C)c2n1`, the activation was inactive: 16.6%. As to `COc1ccc(-n2c(=O)c(CCc3ccccc3)nc3cnc(N4CCN(C)CC4)nc32)cc1`, the activation was inactive: 0.896%. As for `c1cc(NC2CC2)nc(-c2ccoc2)n1`, the activation was inactive: 1.74%. On to `CC(C)CN(C[C@@H](OP(=O)(O)O)[C@H](Cc1ccccc1)NC(=O)O[C@H]1CCOC1)S(=O)(=O)c1ccc(N)cc1`, for which the activation was inactive: -2.37%. As for `C[C@@H](CC#N)CN1CC[C@H](C(C)(C)C)CCC1=O`, the activation was inactive: -18.2%. As to `O=c1c(CCc2ccccc2)nc2cncnc2n1-c1ccccc1`, the activation was inactive: -15.2%.

For `COc1cccc2oc(-c3ccc(O)cc3)cc(=O)c12`, the activation was inactive: -0.534%.

In the case of `COc1ccc(-n2c(CNC(=O)c3ccccc3C(F)(F)F)nnc2SC)cc1`, the activation was inactive: -5.83%. `CN1CCN(c2ccnc(-c3cccc(NS(C)(=O)=O)c3)n2)CC1`: the activation was inactive: -16.4%. `Cc1ccc2c(CC(=O)N3CCOc4ccc(CN5CCOCC5)cc4C3)cc(=O)oc2c1`: the activation was inactive: 7.53%. With `CN1[C@@H]2CC[C@H]1CC(NC(=O)n1c(=O)[nH]c3ccccc31)C2` (stereo not given in full) the figure was inactive: -9.84%. Turning to `N[C@@H](C(=O)N[C@@H]1C(=O)N2C(C(=O)O)=C(Cl)CS[C@H]12)c1ccccc1`, the activation was inactive: -15.5%. As to `Cc1ccc2c(c1)ncc[n+]2CC(=O)c1ccc(F)cc1`, the activation was inactive: -42.2%. Consider `COc1ccc(CCC(=O)c2c(O)cc(OC3OC(CO)C(O)C(O)C3O[C@@H]3OC(C)C(O)C(O)C3O)cc2O)cc1O` (stereo not given in full), for which the activation is inactive: 4.23%. For `COc1cccc(Cn2c(=O)c(-c3ccccc3)nc3cnc(N4CCN(C)CC4)nc32)c1`, the activation is inactive: -12.1%. As for `COc1cc(C[C@@H]2NCCc3cc(O)c(O)cc32)cc(OC)c1OC`, the figure is inactive: -23.2%. With `COc1ccc(NC(=O)[C@@H]2CC=C[C@@H]3CCN(C4CC4)C(=O)[C@@H]32)cc1`, the activation is inactive: -8.93%. With `CCC(C)(C)C(=O)O[C@@H]1C[C@@H](C)C=C2C=C[C@H](C)[C@H](CC[C@@H]3C[C@@H](O)CC(=O)O3)[C@H]21`, the activation is inactive: -34.3%. With `CC(=O)O[C@](C)(CCC=C(C)C)C1CC=C(C)CC1` (stereo not given in full) the figure was inactive: -9.98%; with `COc1ccc(N2C(=O)[C@@H]3C[C@H]2CN3Cc2cccn2-c2nccs2)cc1Cl`, inactive: 2.5%. As for `Cc1cc2c(c(-c3cnccn3)c1)OC(CNC(=O)c1cc(Cl)ccc1F)C2` (stereo not given), the activation was inactive: 5.25%. Turning to `Cc1ncc2c(c1CNS(=O)(=O)c1cccs1)CCN(C(=O)/C=C/c1ccc(F)cc1F)C2`, the activation was inactive: -0.522%. With `Cc1cc(C(=O)NCc2nnc3n2CCN(Cc2ccc(C)c(C)c2)CC3)c(C)o1`, the activation is inactive: -7.7%.

Regarding `CC(=O)c1ccccc1C(=O)NCC1Cc2cccc(-c3cccnc3)c2O1` (stereo not given), the activation was inactive: -2.38%. As for `O=C(c1cncs1)N(Cc1cc2cc3c(cc2nc1N1CCOCC1)CCC3)CC1CCCO1` (stereo not given), the activation was inactive: 3.37%.

Consider `COc1ccc(C(=O)NCc2ccc(OCCN(C)C)cc2)cc1OC`, for which the activation is inactive: -14.5%.

Consider `O=C(Nc1ncc([N+](=O)[O-])s1)c1cccs1`, for which the activation is inactive: -35.8%. `Cc1ccccc1C1(CC(=O)N2CCCC(C)C2)CC(=O)N(Cc2cccnc2)C1=O` (stereo not given): the activation is inactive: -4.54%. Consider `N#Cc1ccccc1-c1ccc2ncnc(N3CCNCC3)c2c1`, for which the activation was inactive: 0.382%. Consider `O=C(O)c1cccc(/C=C2/C[C@@H]3[C@@H](/C=C/[C@@H](O)C4CCCCC4)[C@H](O)C[C@@H]3O2)c1`, for which the activation was inactive: 15.9%. Turning to `C=CC[C@H](N)C(=O)O`, the activation is inactive: -20.3%. With `Brc1ccc([C@H]2CN3CCSC3=N2)cc1` the figure was inactive: -10.4%; with `CC(C)NC(=O)N1CCC2(CC1)CCN(C(=O)c1cnccn1)CC2`, inactive: -2.54%.

As for `C[C@@H]1[C@H](c2ccccc2)OCCS(=O)(=O)N1Cc1ccccc1Br`, the activation was inactive: -14.3%. With `CSc1nccc(-c2cc(Cl)c3c(c2)CC(CNC(=O)c2nonc2C)O3)n1` (stereo not given) the figure was inactive: -3.78%; with `CCc1nnc(NS(=O)(=O)c2ccc(N)cc2)s1`, inactive: -6.74%; with `CCNc1ncc2nc(-c3cn(C)c4ccccc34)c(=O)n(C[C@H]3CCCO3)c2n1`, inactive: -9.01%.

For `O=c1cnc2cnc(Oc3cccc(Cl)c3)nc2n1C1CC1`, the activation was inactive: -19.8%. With `Nc1ncnc(Nc2ccc(Cl)cc2)n1` the figure was inactive: -15.2%; with `N=c1ccn2c(n1)O[C@@H]1[C@H](O)[C@H](CO)O[C@@H]12`, inactive: 1.16%. On to `COc1c(O)cc2c(-c3ccccc3)cc(=O)oc2c1OC`, for which the activation is inactive: -3.44%. In the case of `COc1cccc(CNC(=O)c2c(OC)cc(=O)n3c2CCN(C(=O)c2ccc(C)cc2C)CC3)c1`, the activation is inactive: -3.66%.

With `CCCCCCCCCCC1=C(C)C(=O)C(OC)=C(OC)C1=O`, the activation is inactive: -3.86%. Regarding `COc1ccc(-c2coc3cc(OC4OC(CO)C(O)C(O)C4O)cc(O)c3c2=O)cc1` (stereo not given), the activation was inactive: -6.61%.

For the molecule `COc1cc2c(cc1OC)[C@H](C)N(CC1C(=O)O[C@@H]3C[C@@]4(C)CCC[C@H](C)[C@@]45OC5[C@H]13)CC2` (stereo not given in full), the activation is inactive: 5.77%. `C[C@H]1CN(Cc2ccccc2)C(=O)[C@@H]1CC(=O)NCc1ccccc1`: the activation was inactive: -20%.
